# This is a selection; strong and weak results do not stand in their true shares. The list includes weakly bound sequences.
# How the values were obtained:
# Test in all cases: protein-binding microarray (PBM)
# Details in all cases: PBM: ~300 nM protein, 6 mM HEPES pH 7.8, 80 mM KCl, 0.5 mM EDTA, 0.5 mM EGTA, 6% glycerol, 35 ng/ul poly-dIdC, 1% milk, 1 h, room temperature; Ap Aiptasia and Nv Nematostella (sea anemones) / Co Capsaspora / Aq Amphimedon (sponge) / Dm Drosophila / Hu human; RHD is the Rel homology domain; high values mean tight binding; most listed sequences are background and not binding sites; double strand, one strand shown
# GST-Ap-NF-kB RHD = biological target: T1, GST-Ap-NF-kB RHD (UniProt A0A913YAJ5)
# T1 sequence: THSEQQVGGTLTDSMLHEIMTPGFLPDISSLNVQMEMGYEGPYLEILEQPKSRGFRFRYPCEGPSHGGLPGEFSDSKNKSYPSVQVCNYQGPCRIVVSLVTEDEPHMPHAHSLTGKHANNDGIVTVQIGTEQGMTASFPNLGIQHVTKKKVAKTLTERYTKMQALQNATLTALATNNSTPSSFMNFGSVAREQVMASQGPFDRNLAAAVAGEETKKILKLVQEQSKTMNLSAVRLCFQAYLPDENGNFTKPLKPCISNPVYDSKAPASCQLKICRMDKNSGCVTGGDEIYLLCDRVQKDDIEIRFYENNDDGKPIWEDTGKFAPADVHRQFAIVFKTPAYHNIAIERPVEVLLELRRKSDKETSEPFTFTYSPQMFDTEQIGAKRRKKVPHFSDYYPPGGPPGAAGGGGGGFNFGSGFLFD
# GST-Dm-Relish = biological target: T2, GST-Dm-Relish (UniProt Q94527)
# T2 sequence: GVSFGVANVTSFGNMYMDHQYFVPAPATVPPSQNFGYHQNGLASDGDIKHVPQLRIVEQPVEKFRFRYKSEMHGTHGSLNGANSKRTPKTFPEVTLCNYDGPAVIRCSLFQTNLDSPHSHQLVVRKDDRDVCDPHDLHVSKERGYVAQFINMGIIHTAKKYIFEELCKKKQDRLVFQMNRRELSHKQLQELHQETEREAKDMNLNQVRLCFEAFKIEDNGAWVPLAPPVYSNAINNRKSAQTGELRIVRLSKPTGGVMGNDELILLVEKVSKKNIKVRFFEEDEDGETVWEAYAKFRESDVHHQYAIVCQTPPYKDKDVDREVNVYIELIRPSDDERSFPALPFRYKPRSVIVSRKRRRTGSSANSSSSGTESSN
# [1] = biological target: T3, GST-Nv-NF-kB (Cys allele) (UniProt E5G601)
# T3 sequence: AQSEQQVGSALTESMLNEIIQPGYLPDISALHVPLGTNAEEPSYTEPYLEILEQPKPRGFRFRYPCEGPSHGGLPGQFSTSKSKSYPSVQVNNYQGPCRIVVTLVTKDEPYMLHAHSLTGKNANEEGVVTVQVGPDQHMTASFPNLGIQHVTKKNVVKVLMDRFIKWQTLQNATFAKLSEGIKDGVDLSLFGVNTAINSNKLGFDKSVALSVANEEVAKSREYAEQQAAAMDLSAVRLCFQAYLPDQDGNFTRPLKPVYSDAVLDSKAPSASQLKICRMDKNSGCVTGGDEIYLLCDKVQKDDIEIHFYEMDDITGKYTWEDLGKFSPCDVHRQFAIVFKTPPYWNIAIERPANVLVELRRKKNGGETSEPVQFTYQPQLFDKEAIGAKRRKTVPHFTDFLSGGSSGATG
sequence,measurement,setting,value
CCGATTAACATCAAAGCATTCCCTGATGTTAATCGGGTCTTGATTCGCTTGACGCTGCTG,binding signal,GST-Ap-NF-kB RHD,2.32 z-score
same,binding signal,GST-Dm-Relish,0.807 z-score
CCGATTAACATCACTTCGGGAAATGATGTTAATCGGGTCTTGATTCGCTTGACGCTGCTG,binding signal,GST-Ap-NF-kB RHD,0.969 z-score
same,binding signal,GST-Dm-Relish,0.577 z-score
CCGATTAACATCAGGGAATTGCATGATGTTAATCGGGTCTTGATTCGCTTGACGCTGCTG,binding signal,GST-Ap-NF-kB RHD,2.48 z-score
same,binding signal,GST-Dm-Relish,1.11 z-score
CCGATTAACATCAAGGGATTTCCTGATGTTAATCGGGTCTTGATTCGCTTGACGCTGCTG,binding signal,GST-Ap-NF-kB RHD,5.46 z-score
same,binding signal,GST-Dm-Relish,7.74 z-score
CCGATTAACATCAAAACTTCCCATGATGTTAATCGGGTCTTGATTCGCTTGACGCTGCTG,binding signal,GST-Ap-NF-kB RHD,3.04 z-score
same,binding signal,GST-Dm-Relish,4.52 z-score
CCGATTAACATCAGTGGGAAAAATGATGTTAATCGGGTCTTGATTCGCTTGACGCTGCTG,binding signal,GST-Ap-NF-kB RHD,2.21 z-score
same,binding signal,GST-Dm-Relish,0.998 z-score
CCGATTAACATCACGTGATTCCCTGATGTTAATCGGGTCTTGATTCGCTTGACGCTGCTG,binding signal,GST-Ap-NF-kB RHD,2.22 z-score
same,binding signal,GST-Dm-Relish,8.61 z-score
CCGATTAACATCAGGGAATTCACTGATGTTAATCGGGTCTTGATTCGCTTGACGCTGCTG,binding signal,GST-Ap-NF-kB RHD,4.74 z-score
same,binding signal,GST-Dm-Relish,8.25 z-score
CCGATTAACATCAAGGTTCCCCCTGATGTTAATCGGGTCTTGATTCGCTTGACGCTGCTG,binding signal,GST-Ap-NF-kB RHD,8.03 z-score
same,binding signal,GST-Dm-Relish,5.67 z-score
CCGATTAACATCAGGCTTTCCCCTGATGTTAATCGGGTCTTGATTCGCTTGACGCTGCTG,binding signal,GST-Ap-NF-kB RHD,6.49 z-score
same,binding signal,GST-Dm-Relish,7.38 z-score
CCGATTAACATCAAATTTCCCTATGATGTTAATCGGGTCTTGATTCGCTTGACGCTGCTG,binding signal,[1],6.5 z-score
CCGATTAACATCAAGGGAAAAAATGATGTTAATCGGGTCTTGATTCGCTTGACGCTGCTG,binding signal,[1],5.84 z-score
CCGATTAACATCAGGGGACGGGATGATGTTAATCGGGTCTTGATTCGCTTGACGCTGCTG,binding signal,[1],3.92 z-score
CCGATTAACATCACAATATCCCCTGATGTTAATCGGGTCTTGATTCGCTTGACGCTGCTG,binding signal,[1],6.58 z-score
CCGATTAACATCAAAATAATCCCTGATGTTAATCGGGTCTTGATTCGCTTGACGCTGCTG,binding signal,[1],4.62 z-score
CCGATTAACATCAGGAGTTTCCCTGATGTTAATCGGGTCTTGATTCGCTTGACGCTGCTG,binding signal,[1],6.51 z-score
CCGATTAACATCAAAAATGCCCCTGATGTTAATCGGGTCTTGATTCGCTTGACGCTGCTG,binding signal,[1],6.79 z-score
CCGATTAACATCAGGGAATGCACTGATGTTAATCGGGTCTTGATTCGCTTGACGCTGCTG,binding signal,[1],3.18 z-score
CCGATTAACATCACGGGTTCCCCTGATGTTAATCGGGTCTTGATTCGCTTGACGCTGCTG,binding signal,[1],5.61 z-score
CCGATTAACATCAGGGGAGGGACTGATGTTAATCGGGTCTTGATTCGCTTGACGCTGCTG,binding signal,[1],4.69 z-score
CCGATTAACATCACGGGGTGGCCTGATGTTAATCGGGTCTTGATTCGCTTGACGCTGCTG,binding signal,[1],0.326 z-score
CCGATTAACATCACGGATATCCCTGATGTTAATCGGGTCTTGATTCGCTTGACGCTGCTG,binding signal,[1],0.744 z-score
CCGATTAACATCAGGTAACCCCATGATGTTAATCGGGTCTTGATTCGCTTGACGCTGCTG,binding signal,[1],0.775 z-score
CCGATTAACATCACTAAAATCCCTGATGTTAATCGGGTCTTGATTCGCTTGACGCTGCTG,binding signal,[1],3.38 z-score
CCGATTAACATCAAAGATTCCCCTGATGTTAATCGGGTCTTGATTCGCTTGACGCTGCTG,binding signal,[1],10.5 z-score
CCGATTAACATCAGGGGACTCACTGATGTTAATCGGGTCTTGATTCGCTTGACGCTGCTG,binding signal,[1],4.13 z-score
CCGATTAACATCAGAATTACCCATGATGTTAATCGGGTCTTGATTCGCTTGACGCTGCTG,binding signal,[1],3.82 z-score
CCGATTAACATCATTTGGGAAAATGATGTTAATCGGGTCTTGATTCGCTTGACGCTGCTG,binding signal,[1],3.26 z-score
CCGATTAACATCAGGACATTCCCTGATGTTAATCGGGTCTTGATTCGCTTGACGCTGCTG,binding signal,[1],4.82 z-score
CCGATTAACATCAGGCAACCCCATGATGTTAATCGGGTCTTGATTCGCTTGACGCTGCTG,binding signal,[1],-0.12 z-score
CCGATTAACATCAAGATTCCCCCTGATGTTAATCGGGTCTTGATTCGCTTGACGCTGCTG,binding signal,[1],9.42 z-score
CCGATTAACATCAGGGACTCCCATGATGTTAATCGGGTCTTGATTCGCTTGACGCTGCTG,binding signal,[1],4.05 z-score
CCGATTAACATCAGAAAGTTCCCTGATGTTAATCGGGTCTTGATTCGCTTGACGCTGCTG,binding signal,[1],4.74 z-score
CCGATTAACATCAGGGGTTTTTATGATGTTAATCGGGTCTTGATTCGCTTGACGCTGCTG,binding signal,[1],8.52 z-score
CCGATTAACATCAGGGGCCCCCCTGATGTTAATCGGGTCTTGATTCGCTTGACGCTGCTG,binding signal,[1],3.78 z-score
CCGATTAACATCACTTCCCCCCATGATGTTAATCGGGTCTTGATTCGCTTGACGCTGCTG,binding signal,[1],4.18 z-score
CCGATTAACATCAGATAATCCCCTGATGTTAATCGGGTCTTGATTCGCTTGACGCTGCTG,binding signal,[1],8.93 z-score
CCGATTAACATCAAGCGTTCCCCTGATGTTAATCGGGTCTTGATTCGCTTGACGCTGCTG,binding signal,[1],5.36 z-score
CCGATTAACATCAGGGGGCAAGATGATGTTAATCGGGTCTTGATTCGCTTGACGCTGCTG,binding signal,[1],2.14 z-score
CCGATTAACATCAAATTCCCGCCTGATGTTAATCGGGTCTTGATTCGCTTGACGCTGCTG,binding signal,[1],4.23 z-score
CCGATTAACATCAAACTTCCCCGTGATGTTAATCGGGTCTTGATTCGCTTGACGCTGCTG,binding signal,[1],8.41 z-score
CCGATTAACATCAGGATTCTCCCTGATGTTAATCGGGTCTTGATTCGCTTGACGCTGCTG,binding signal,[1],4.71 z-score
CCGATTAACATCAGGGGAAACAATGATGTTAATCGGGTCTTGATTCGCTTGACGCTGCTG,binding signal,[1],7.25 z-score
CCGATTAACATCAAGCATTCCCCTGATGTTAATCGGGTCTTGATTCGCTTGACGCTGCTG,binding signal,[1],7.73 z-score
CCGATTAACATCAAAAACTCCCTTGATGTTAATCGGGTCTTGATTCGCTTGACGCTGCTG,binding signal,[1],7.94 z-score
CCGATTAACATCAAATAACCCCCTGATGTTAATCGGGTCTTGATTCGCTTGACGCTGCTG,binding signal,[1],7.1 z-score
CCGATTAACATCAGGGGAATCTATGATGTTAATCGGGTCTTGATTCGCTTGACGCTGCTG,binding signal,[1],8.91 z-score
CCGATTAACATCACAAAAAACCCTGATGTTAATCGGGTCTTGATTCGCTTGACGCTGCTG,binding signal,[1],4.37 z-score

# Source: article PMC5700166
